The values that follow come from a collection of fitness landscapes (doi:10.1126/science.1257360).

The labels stand for the following.
B1: PhoQ; a variant is named by its letters at X, in order, P23837 (parent)
chain: MKKLLRLFFPLSLRVRFLLATAAVVLVLSLAYGMVALIGYSVSFDKTTFRLLRGESNLFYTLAKWENNKLHVELPENIDKQSPTMTLIYDENGQLLWAQRDVPWLMKMIQPDWLKSNGFHEIEADVNDTSLLLSGDHSIQQQLQEVREDDDDAEMTHSVAVNVYPATSRMPKLTIVVVDTIPVELKSSYMVWSWFIYVLSANLLLVIPLLWVAAWWSLRPIEALAKEVRELEEHNRELLNPATTRELTSLVRNLNRLLKSERERYDKYRTTLTDLTHSLKTPLXXLQXXLRSLRSEKMSVSDAEPVMLEQISRISQQIGYYLHRASMRGGTLLSRELHPVAPLLDNLTSALNKVYQRKGVNISLDISPEISFVGEQNDFVEVMGNVLDNACKYCLEFVEISARQTDEHLYIVVEDDGPGIPLSKREVIFDRGQRVDTLRPGQGVGLAVAREITEQYEGKIVAGESMLGGARMEVIFGRQHSAPKDE

The list shows a part of the results.

The variants in the assay derive from B1. The experiment in a line: enrichment ratio after two sorts for PhoP signalling (ratio (wild type AVST 3.29)); higher = more functional. The conditions noted are these: with PhoP (E. coli).
As for QHGR, the enrichment ratio is no more than 0.25.

On to AQTN, for which the enrichment ratio was no more than 0.25.

In the case of IYWM, the enrichment ratio is no more than 0.25.

For the variant TQGY, the enrichment ratio was found to be 4.58.

For the variant VDEH, the enrichment ratio was no more than 0.25.

Turning to CCHL, the enrichment ratio was no more than 0.25.

Consider SWLC, for which the enrichment ratio is no more than 0.25.

As for IKRM, the enrichment ratio was no more than 0.25.

As to VKCH, the enrichment ratio is no more than 0.25.

As for QADW, the enrichment ratio is no more than 0.25.

With YKRV, the enrichment ratio is no more than 0.25.

As for FHNI, the enrichment ratio is no more than 0.25.

Consider VTFC, for which the enrichment ratio was no more than 0.25.

As to HERH, the enrichment ratio is no more than 0.25.

In the case of AGAR, the enrichment ratio was no more than 0.25.

For the variant LPCY, the enrichment ratio was no more than 0.25.

As for FADF, the enrichment ratio was no more than 0.25.

For YMVK, the enrichment ratio was no more than 0.25.

On to HPTT, for which the enrichment ratio is no more than 0.25.

Consider VLEI, for which the enrichment ratio was no more than 0.25.

For the variant LNEL, the enrichment ratio is no more than 0.25.

For HCEF, the enrichment ratio was no more than 0.25.

Turning to VARQ, the enrichment ratio was no more than 0.25.

As for RFLC, the enrichment ratio is 0.262.

Consider HTWC, for which the enrichment ratio is no more than 0.25.

Consider IFMW, for which the enrichment ratio is no more than 0.25.

On to GKMV, for which the enrichment ratio was no more than 0.25.

Turning to VESQ, the enrichment ratio is no more than 0.25.

With AKHA, the enrichment ratio is no more than 0.25.

ERDL: the enrichment ratio is no more than 0.25.

Regarding WQLD, the enrichment ratio was no more than 0.25.

Regarding MFMP, the enrichment ratio is no more than 0.25.

For FVYF, the enrichment ratio was no more than 0.25.

With QHRH, the enrichment ratio is no more than 0.25.

For LHIE, the enrichment ratio is no more than 0.25.

Turning to LEAY, the enrichment ratio was no more than 0.25.

In the case of PPMS, the enrichment ratio was no more than 0.25.

Turning to YYCH, the enrichment ratio was no more than 0.25.

For ASCT, the enrichment ratio came out at 11.1.

As to TGVG, the enrichment ratio amounted to 4.28.

Turning to CLIH, the enrichment ratio was no more than 0.25.

Regarding MGYR, the enrichment ratio was no more than 0.25.

VHSG: the enrichment ratio was no more than 0.25.

Regarding ASNQ, the enrichment ratio is no more than 0.25.

With MLCK, the enrichment ratio is no more than 0.25.

Consider KFKT, for which the enrichment ratio is no more than 0.25.

Turning to WSVH, the enrichment ratio is no more than 0.25.

Regarding WARL, the enrichment ratio was no more than 0.25.

Turning to FGPY, the enrichment ratio is no more than 0.25.

With KRHR, the enrichment ratio was no more than 0.25.

For NRDG, the enrichment ratio was no more than 0.25.

Turning to GAMH, the enrichment ratio is no more than 0.25.

MNRP: the enrichment ratio is no more than 0.25.

For the variant YTDI, the enrichment ratio was no more than 0.25.

On to SPDY, for which the enrichment ratio is no more than 0.25.

Take QINS: the enrichment ratio is no more than 0.25.

As for RLNM, the enrichment ratio was no more than 0.25.

As for MNAA, the enrichment ratio amounted to 8.61.

With VASQ, the enrichment ratio was no more than 0.25.

For QYTC, the enrichment ratio was no more than 0.25.

On to DQQT, for which the enrichment ratio was no more than 0.25.

For LCKT, the enrichment ratio is no more than 0.25.

For LGGV, the enrichment ratio is no more than 0.25.

For GTGS, the enrichment ratio came to 0.373.

In the case of TIGG, the enrichment ratio worked out at 6.69.

As to SNVW, the enrichment ratio is 1.56.

ASPY: the enrichment ratio was no more than 0.25.

PHLD: the enrichment ratio was no more than 0.25.

Turning to ARVL, the enrichment ratio was 4.97.

Take HHHY: the enrichment ratio is no more than 0.25.

As to EKKV, the enrichment ratio was no more than 0.25.

In the case of PQWF, the enrichment ratio is no more than 0.25.

Consider ADLE, for which the enrichment ratio was no more than 0.25.

As to SVYW, the enrichment ratio was 0.759.

On to FLRW, for which the enrichment ratio was no more than 0.25.

Take HYTS: the enrichment ratio was no more than 0.25.

For MYGT, the enrichment ratio was no more than 0.25.

Consider GENS, for which the enrichment ratio was no more than 0.25.

In the case of HPPQ, the enrichment ratio was no more than 0.25.

As to LNYK, the enrichment ratio was no more than 0.25.

For the variant MIVQ, the enrichment ratio is no more than 0.25.

As for RDQS, the enrichment ratio is no more than 0.25.

With YAVE, the enrichment ratio was no more than 0.25.

On to WYRQ, for which the enrichment ratio was no more than 0.25.

Regarding ADGR, the enrichment ratio was no more than 0.25.

Turning to MTWI, the enrichment ratio is 10.2.

As to PGMQ, the enrichment ratio was no more than 0.25.

In the case of QALC, the enrichment ratio turned out to be 10.7.

In the case of YVRY, the enrichment ratio was no more than 0.25.

On to SCMC, for which the enrichment ratio was determined as 12.6.

As for SYAR, the enrichment ratio was no more than 0.25.

As to ALIG, the enrichment ratio is no more than 0.25.

In the case of DLMH, the enrichment ratio was no more than 0.25.

In the case of LDIW, the enrichment ratio is no more than 0.25.

Take PIIK: the enrichment ratio was no more than 0.25.

Take GVSD: the enrichment ratio is no more than 0.25.

Regarding REPT, the enrichment ratio is no more than 0.25.

Turning to VQMV, the enrichment ratio is no more than 0.25.

As to DHEG, the enrichment ratio was no more than 0.25.

As for YEPK, the enrichment ratio was no more than 0.25.

On to TAMD, for which the enrichment ratio is 6.3.

For the variant FLAL, the enrichment ratio was no more than 0.25.

VSMS: the enrichment ratio was determined as 0.859.

Consider ITEI, for which the enrichment ratio is no more than 0.25.

As to TEAM, the enrichment ratio was 16.4.

For IWPY, the enrichment ratio is no more than 0.25.

In the case of VFAF, the enrichment ratio is no more than 0.25.

For ANEF, the enrichment ratio was no more than 0.25.

As for LMPF, the enrichment ratio was no more than 0.25.

Take DNNE: the enrichment ratio is no more than 0.25.

Take PMTH: the enrichment ratio is no more than 0.25.

In the case of YHFR, the enrichment ratio was no more than 0.25.

Consider YFEM, for which the enrichment ratio is no more than 0.25.

As to KRIR, the enrichment ratio was no more than 0.25.

Consider VVKR, for which the enrichment ratio was no more than 0.25.

With TYPQ, the enrichment ratio is no more than 0.25.

As for SLQM, the enrichment ratio amounted to 7.14.

As to TICW, the enrichment ratio is no more than 0.25.

On to EAPA, for which the enrichment ratio is no more than 0.25.

Regarding EDVF, the enrichment ratio is no more than 0.25.

Regarding HPNG, the enrichment ratio was no more than 0.25.

Regarding AMTR, the enrichment ratio is 2.89.

As to MGEP, the enrichment ratio is no more than 0.25.

Regarding QSYW, the enrichment ratio was no more than 0.25.

In the case of PESR, the enrichment ratio was no more than 0.25.

As to QKNW, the enrichment ratio is no more than 0.25.

With PHAA, the enrichment ratio is no more than 0.25.

For the variant FWTV, the enrichment ratio was no more than 0.25.

Take QKRR: the enrichment ratio is no more than 0.25.

As to KQIM, the enrichment ratio is no more than 0.25.

Turning to VCVY, the enrichment ratio was no more than 0.25.

Consider IHTC, for which the enrichment ratio is no more than 0.25.

In the case of YLST, the enrichment ratio is no more than 0.25.

Take GLFH: the enrichment ratio was no more than 0.25.

In the case of FKQA, the enrichment ratio is no more than 0.25.

Regarding RVYA, the enrichment ratio is no more than 0.25.

Regarding NMWN, the enrichment ratio is no more than 0.25.

In the case of WSCD, the enrichment ratio is no more than 0.25.

For the variant SVIT, the enrichment ratio is no more than 0.25.

As for RLIM, the enrichment ratio is no more than 0.25.

Consider TWQA, for which the enrichment ratio is no more than 0.25.

With PQTQ, the enrichment ratio is no more than 0.25.

With QWSF, the enrichment ratio was no more than 0.25.

On to HDRQ, for which the enrichment ratio was no more than 0.25.

With HLVF, the enrichment ratio was 1.11.

For the variant NTDG, the enrichment ratio is no more than 0.25.

As to FHHP, the enrichment ratio was no more than 0.25.

As to HRYV, the enrichment ratio is no more than 0.25.

MIRW: the enrichment ratio is no more than 0.25.

Consider YEYA, for which the enrichment ratio is no more than 0.25.

With SWNA, the enrichment ratio was no more than 0.25.

On to AHHS, for which the enrichment ratio was no more than 0.25.

For EAYE, the enrichment ratio is no more than 0.25.
